Data taken from PubChem BioAssay AID504706 (National Center for Advancing Translational Sciences (NCATS), 2011).
Out of some 320,000 compounds screened, about 200 (0.062%) were called active. Inconclusive results, whose numbers are uncertain, are shown with a selection of clear calls. Calls follow the shape of the dose curve; as a rule, active = well fitted activation curve with a large enough effect; inconclusive = small, poorly fitted or top-dose-only effect; inactive = no such curve, though single readings can be large or run the other way. Potencies of inconclusive entries are left out as doubtful fits.

Experiment: qHTS assay for re-activators of p53 using a Luc reporter; also: nearly all actives have a fitted effect of over 45% in size
Details: H1299 p53-A138V BP100-luciferase reporter, luminescence, 24 h; series mostly up to 92.2 µM
Procedure, shortened: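 p53-null H1299 cells stably carrying temperature-sensitive p53-A138V and a BP100-luciferase reporter were pinned with compounds (4-point, 1:5 series) and held 24 hrs at 37 deg C. Luminescence was read 10 min after detection reagent.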
Potency is read from the fitted curve at half-maximal effect; tags tell the direction and shape of the fitted curve.

| Compound | Potency |
| --- | --- |
| Clc1ccc(-n2nnc(-c3cccnc3)n2)cc1Cl | inconclusive [activator, partial curve, poor fit] |
| O=C(NC(=S)Nc1ccc2c(c1)C(=O)c1ccccc1C2=O)c1ccc(F)cc1 | inconclusive [activator, partial curve, poor fit] |
| C/C=C(\C)c1nnc(NC(=O)c2ccco2)s1 | inconclusive [activator, partial curve, poor fit] |
| CCCCNC(=O)CSc1nc2ccc(N3CCOCC3)cc2c(=O)n1Cc1ccc(OC)cc1 | inactive |
| COc1cccc(CN2CCN(CC#Cc3ccccc3)CC2CCO)c1 (centres undefined) | inconclusive [activator, partial curve, poor fit] |
| CC(C)C(=O)N(Cc1ccccc1)c1ccccn1 | inactive |
| C=CCn1c(NCc2cc(C)ccc2O)nc2ccccc21 | inconclusive [activator, partial curve, poor fit] |
| COC(=O)c1cc(=O)n(CCc2ccccc2F)c(=Nc2ccc(F)c(Cl)c2)s1 | inconclusive [activator, single point] |
| Cc1cc(C)c2cc(C#N)c(SCC(=O)NCc3ccco3)nc2c1 | inconclusive [activator, partial curve, poor fit] |
| CCc1nnc(N2C(=O)c3cccc4cccc(c34)C2=O)s1 | inactive |
| Cc1cccc(NC(=O)Cc2noc3ccccc23)c1C | inactive |
| COC(=O)Nc1nnc(/C=C/c2ccccc2)s1 | inconclusive [activator, partial curve, poor fit] |
| O=C(CCc1ccccc1)Nc1ccc(N2CCCCC2)cc1 | inconclusive [activator, partial curve, poor fit] |
| O=C(N/N=C/c1cccs1)c1[nH]ncc1Br | inconclusive [activator, partial curve, poor fit] |
| COc1cccc(C(=O)NCCn2ccc3ccccc32)c1 | inconclusive [activator, partial curve, poor fit] |
| OCCSc1ncnc2c1oc1ccccc12 | inconclusive [activator, single point] |
| Nc1nnc(CSc2ccc(Cl)cc2)s1 | inconclusive [activator, partial curve, poor fit] |
| CCCCOc1cccc(C(=O)NNC(=S)NC2CCCCC2)c1 | inconclusive [activator, partial curve, poor fit] |
| O=C(NCCCc1ccccn1)C1CCC(=O)N(Cc2cccc(F)c2)C1 (centres undefined) | inactive |
